Assay results: PMC12040169 (PLOS Biology, 2025)
The other results are listed elsewhere or left out.

These compounds were tested on T1, C. trachomatis L2/434/Bu expressing GFP (CTL2-GFP). Conditions: total inclusion area; 28.5 h, 10 µM; inhibitor.
T1 construct: L2/434/Bu GFP intracellular growth in HeLa cells
Design: species or system HeLa; C. trachomatis total inclusion area by high-content imaging, normalised to DMSO
In short: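 Post-fluorescence-read fixation, DNA staining with Hoechst and high-content imaging; GFP inclusion area and number per well, and nuclei counts, used as proxies for bacterial growth and host viability.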

Going from `O=C(NCCCNc1ccc([N+](=O)[O-])cc1)c1cccs1` [CBK066825] to `CC(C(=O)Nc1ccc(S(N)(=O)=O)cc1)N(C)Cc1cccs1` (stereo not shown) [CBK305945], the “% of control remaining” value falls from 86.5763 to 55.8771.

Compared with `O=C(O)c1ccc(N2CC(C(=O)Nc3ccc(F)cc3)CC2=O)cc1` (stereo not shown) [CBK286794], `CCCCOC(=O)c1ccc(N2C(=O)CC(N3CCN(c4ccc(F)cc4)CC3)C2=O)cc1` (stereo not shown) [CBK265527] is lower in “% of control remaining” value: 110.888 for the first, 96.9872 for the second.

Compared with `Nc1cccc(-c2nccnc2N2CCCC2CO)c1` (stereo not shown) [CBK036786], `Cc1cccc(CNc2nccnc2-c2ccncc2)c1` [CBK037453] is higher in “% of control remaining” value: 90.3073 for the first, 92.499 for the second.

Going from `COc1ccc(S(=O)(=O)Nc2nccnc2-c2cccs2)cc1OC` [CBK050774] to `Oc1cc(C(F)(F)F)nc2[nH]nc(-c3cccs3)c12` [CBK008498], the “% of control remaining” value falls from 88.2681 to 58.7199.

First: CC(C)C(=O)Nc1nc2c(nc(OCc3ccccc3)n2C2CC(O)C(CO)O2)c(=O)[nH]1 (stereo not shown) [CBK201264]
Second: CC(=O)c1ccccc1-c1ccc(C(=O)NCCc2ccccn2)c(NCC2CC2)n1 [CBK076580]
The “% of control remaining” value of the first is higher: 95.5149 for the first, 72.0855 for the second.

First: Cc1nc(NC(=O)Cc2c(C)nn(CC(C)C)c2C)sc1-c1n[nH]c(=S)n1C [CBK296691]
Second: CCc1cc2cc3c(cc2nc1SCC(=O)Nc1nc(C)c(C)s1)OCO3 [CBK108548]
The “% of control remaining” value of the first is lower: 85.3519 for the first, 103.775 for the second.

Compared with `Cc1cccnc1CN(C)C(=O)c1cccc(NC(=O)C2CCCC2)c1` [CBK306913], `CS(=O)(=O)N1CCCC(C(=O)Nc2cccc3cccnc23)C1` (stereo not shown) [CBK299783] is lower in “% of control remaining” value: 87.4193 for the first, 57.8123 for the second.

Compared with `CC(NS(=O)(=O)c1ccc(CCC(=O)O)cc1)c1ccccc1` (stereo not shown) [CBK267058], `CC(=O)Nc1ccc(S(=O)(=O)NCc2ccc3[nH]c4c(c3c2)CCCC4)cc1` [CBK267122] is higher in “% of control remaining” value: 125.202 for the first, 125.232 for the second.

First: CSc1ccccc1Nc1ncnc2n[nH]cc12 [CBK288099]
Second: O=C(CSc1nnc2c(n1)[nH]c1ccccc12)Nc1ccccc1[N+](=O)[O-] [CBK263195]
The “% of control remaining” value of the first is higher: 96.8009 for the first, 64.2602 for the second.

Compared with `CCn1c(SCC(=O)Nc2ccc(C(=O)O)cc2)nnc1-c1ccccc1C` [CBK265927], `COc1ccc(OCC(=O)Nc2cccc(-c3nnc4c5ccccc5c(C)nn34)c2)cc1` [CBK266743] is higher in “% of control remaining” value: 70.4377 for the first, 74.622 for the second.

First: CCN1CCN(c2ncnc3c2cnn3-c2cccc(C)c2)CC1 [CBK265814]
Second: Cc1oc(NC(=O)CN2CCN(c3ccccc3Cl)CC2)c(C#N)c1C [CBK305908]
The “% of control remaining” value of the first is higher: 115.397 for the first, 57.7243 for the second.

Compared with `CO[C@@]12CC[C@@H](OCC3CC3)C[C@@H]1N(Cc1c(C)cnn1C)CC2` [CBK307072], `Cc1csc2c(C3CCCN(C(=O)C4CC4)C3)nc(C)n12` (stereo not shown) [CBK285212] is lower in “% of control remaining” value: 70.7276 for the first, 60.6544 for the second.

Compared with `Cc1cc(C(=O)N2CCN(C(=O)c3ccco3)CC2)n[nH]1` [CBK144447], `Cc1cc(Cl)c(S(=O)(=O)N2CCN(c3ccccn3)CC2)cc1OCC(N)=O` [CBK266553] is higher in “% of control remaining” value: 80.0007 for the first, 86.356 for the second.

Compared with `COc1cccc(CNCc2ccccc2[N+](=O)[O-])c1OC` [CBK262198], `CNC(=O)C1(Cc2ccccc2-c2ccccc2)CCN(C(=O)Cc2ccc(C)cc2)CC1` [CBK286274] is higher in “% of control remaining” value: 95.4349 for the first, 111.675 for the second.

First: Cc1ccccc1-n1nc(C)c(CN2CCC(O)C(C)C2)c1C (stereo not shown) [CBK282739]
Second: Cc1nn(CCC(=O)NC(C)Cc2ccccn2)c(C)c1Cl (stereo not shown) [CBK281419]
The “% of control remaining” value of the first is higher: 94.2856 for the first, 87.5051 for the second.

Compared with `Cc1cc(NS(=O)(=O)c2ccc(NC(=O)c3ccc(Br)cc3)cc2)no1` [CBK265371], `Cc1cc(CNC(=S)Nc2ccc(S(N)(=O)=O)cc2)nn1C` [CBK267077] is lower in “% of control remaining” value: 100.738 for the first, 74.2981 for the second.

Compared with `Cc1ccc(N(Cc2ccco2)C(=O)c2cccc(S(=O)(=O)N3CCOCC3)c2)cc1` [CBK265857], `O=C(CN1CCC(c2ccc(F)cc2)CC1)NCc1ccco1` [CBK283641] is higher in “% of control remaining” value: 73.0467 for the first, 92.257 for the second.

Going from `N#Cc1ccccc1C(=O)N(CCO)Cc1ccccc1` [CBK304844] to `O=C(O)C1Cc2ccccc2CN1C(=O)c1ccccc1` (stereo not shown) [CBK286628], the “% of control remaining” value rises from 110.637 to 114.248.

Going from `Cn1c2c(ccc1=O)CCCCC2` [CBK005987] to `NC(=O)c1c(NC(=O)c2nc3ccccc3s2)sc2c1CCCCC2` [CBK287566], the “% of control remaining” value rises from 36.5421 to 101.099.

First: CC(C)OC(=O)N1CCC(C(=O)NC(c2ccccc2)c2ccc3ccccc3n2)CC1 (stereo not shown) [CBK059642]
Second: CCOC(=O)C1CCN(S(=O)(=O)c2ccc(C(C)C)cc2)CC1 [CBK200044]
The “% of control remaining” value of the first is higher: 123.349 for the first, 73.6459 for the second.

Going from `CNCCc1nc(-c2ccc(F)cc2)c2cnccn12` [CBK035927] to `Clc1cncc(OCCCCOc2ccccc2)n1` [CBK176018], the “% of control remaining” value falls from 90.5588 to 61.1961.

First: FC(F)(F)c1ccc(N2CCNCC2)nc1OCCOc1ccc2ccccc2c1 [CBK200002A]
Second: Oc1ccc(/C=N/Nc2nnc(-c3ccccc3)c(-c3ccccc3)n2)cc1 [CBK262011]
The “% of control remaining” value of the first is lower: 49.4534 for the first, 105.95 for the second.

First: Cc1cc(O)n2nc(CC(=O)NCc3nnc4n3CCCCC4)nc2n1 [CBK306989]
Second: COc1ccc(-c2cn(C[C@H]3CC4CCN3C[C@@H]4C(=O)NC3CCCCC3)nn2)cc1 (stereo partly shown) [CBK289084]
The “% of control remaining” value of the first is lower: 55.5128 for the first, 105.068 for the second.

Going from `CC1CCCCC12NC(=O)N(Cc1csc(-c3cccs3)n1)C2=O` (stereo not shown) [CBK305829] to `COC1(CNC(=O)c2cc3ccccc3[nH]2)CCSC1` (stereo not shown) [CBK304605], the “% of control remaining” value falls from 85.8167 to 53.8923.

First: CCCC/C=C/c1cnc(N2CCOCC2)c2nccn12 [CBK091256]
Second: Cc1occc1C(=O)Nc1cnn(CCCC(=O)O)c1 [CBK270116]
The “% of control remaining” value of the first is lower: 68.5277 for the first, 77.9399 for the second.

Going from `CN1CC(=O)N(c2ccc(Cl)cc2Cl)C1=O` [CBK116319] to `CN1C(=O)c2cccc3c(S(=O)(=O)Nc4ccc(C(=O)O)c(O)c4)ccc1c23` [CBK299799], the “% of control remaining” value rises from 96.9945 to 135.693.
